These results are taken from patent US20190055314A1 (ADAGENE, published 2019).

The Kd is a measure of binding affinity in units of concentration. As a reminder, the koff is the first-order rate constant of dissociation. The kon is a measure of how fast the partners come together. A word on the EC50 (read off the curve): it is the midpoint of the concentration-response curve.

The target of assay [1] is T1, human CD137-His6 (Sino Biological #10041-H08H) (human, UniProt Q07011 24-186).
T1 construct: Bought; also called human CD137 protein; not shown: His6 tag
The experiment in a line: SPR Biacore, IgG. Background: Surface plasmon resonance follows binding to a sensor surface in real time, without labels.

In assay [2] the target is T2, human CD137 fused with human FC fragment (human, UniProt Q07011 24-186, limits assumed).
T2 construct: may be the same reagent as CD137-hisFc; also called human CD137 (FC fusion protein); not shown: human Fc fragment
Kind of assay: ELISA, coated CD137-Fc. A general note: ELISA stands for enzyme-linked immunosorbent assay.

Assay [3] addresses T3, monkey CD137 fused with human FC fragment (cynomolgus monkey, UniProt Q07011 24-179 (human entry), limits assumed).
T3 construct: also called Cyno CD137-Fc; not shown: human Fc fragment
T3 chain: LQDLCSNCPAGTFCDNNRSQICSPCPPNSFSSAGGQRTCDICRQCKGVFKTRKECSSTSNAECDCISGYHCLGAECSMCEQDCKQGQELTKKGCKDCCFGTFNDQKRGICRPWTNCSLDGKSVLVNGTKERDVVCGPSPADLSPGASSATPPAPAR
Kind of assay: ELISA, coated CD137-Fc.

Assay [4] concerns the target T4, mouse CD137 fused with human FC fragment (mouse, UniProt P20334 24-178, limits assumed).
T4 construct: also called mouse CD137-Fc; not shown: human Fc fragment
T4 sequence: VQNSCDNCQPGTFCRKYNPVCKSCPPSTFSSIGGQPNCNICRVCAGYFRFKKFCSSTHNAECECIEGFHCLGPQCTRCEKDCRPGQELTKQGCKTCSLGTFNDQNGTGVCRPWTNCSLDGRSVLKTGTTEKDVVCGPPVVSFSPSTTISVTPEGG
Kind of assay: ELISA, coated CD137-Fc.

A further assay addresses T5, Hu_GQ109AA (human, UniProt Q07011 18-255).
T5 construct: On HEK293F
The experiment in a line: flow cytometry, HEK293F. (A flow cytometer gives signals particle by particle.)

The next assay concerns the target T6, Hu_EL111AA (human, UniProt Q07011 18-255).
T6 construct: On HEK293F
Kind of assay: flow cytometry, HEK293F.

The target in another assay is T7, Hu_TN137AA (human, UniProt Q07011 18-255).
T7 construct: On HEK293F
Kind of assay: flow cytometry, HEK293F.

Assay [5] concerns the target T1, human CD137-His6 (Sino Biological …). The experiment in a line: SPR Biacore, IgG captured.
Assay [6] concerns the target T8, monkey CD137 protein (Biacore) (cynomolgus monkey, UniProt Q07011 24-179 (human entry), limits assumed).
T8 construct: Construct used as SPR analyte not described; also called Cyno CD137
T8 chain: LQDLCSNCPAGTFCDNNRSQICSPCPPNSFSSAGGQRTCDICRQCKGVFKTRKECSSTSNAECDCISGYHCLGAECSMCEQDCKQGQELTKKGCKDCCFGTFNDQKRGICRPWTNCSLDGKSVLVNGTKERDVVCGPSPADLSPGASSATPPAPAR
Kind of assay: SPR Biacore, IgG captured.

In assay [7] the target is T9, mouse CD137 protein (Biacore) (mouse, UniProt P20334 24-178, limits assumed).
T9 construct: Construct used as SPR analyte not described
T9 sequence: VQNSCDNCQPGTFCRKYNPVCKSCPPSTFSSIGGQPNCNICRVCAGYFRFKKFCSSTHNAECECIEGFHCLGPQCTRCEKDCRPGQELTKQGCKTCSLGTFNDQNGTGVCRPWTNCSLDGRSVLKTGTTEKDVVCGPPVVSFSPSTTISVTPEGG
Kind of assay: SPR Biacore, IgG captured.

The next assay deals with T10, Hu_CRD4 (human, UniProt Q07011 119-159, limits assumed).
T10 construct: also called human CD137 CRD4
T10 chain: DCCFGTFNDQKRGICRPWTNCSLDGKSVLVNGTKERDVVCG
The experiment in a line: flow cytometry, yeast display [Cont.].

The next assay has as its target T11, Hu_CRD1-CRD2 (human, UniProt Q07011 24-86, limits assumed).
T11 construct: also called two CRD units (CRD1-CRD2) of human CD137
Kind of assay: flow cytometry, yeast display [Cont.].

In another assay the target is T12, Hu_CRD2-CRD3 (human, UniProt Q07011 46-118, limits assumed).
T12 construct: also called two CRD units (CRD2-CRD3) of human CD137
Kind of assay: flow cytometry, yeast display [Cont.].

Assay [8] has as its target T13, rat CD137 on the cell surface (rat, UniProt Q4W8J3 24-258).
T13 sequence: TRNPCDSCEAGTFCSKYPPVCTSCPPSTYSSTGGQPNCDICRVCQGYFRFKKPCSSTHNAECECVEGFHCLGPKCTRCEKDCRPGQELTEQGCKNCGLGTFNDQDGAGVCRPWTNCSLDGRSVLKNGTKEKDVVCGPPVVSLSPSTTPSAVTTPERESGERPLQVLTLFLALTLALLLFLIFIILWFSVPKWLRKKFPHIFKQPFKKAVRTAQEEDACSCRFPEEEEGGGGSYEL
Kind of assay: flow cytometry, HEK293F cells expressing CD137.

For another assay, the target named is T14, CD95.
T14 chain: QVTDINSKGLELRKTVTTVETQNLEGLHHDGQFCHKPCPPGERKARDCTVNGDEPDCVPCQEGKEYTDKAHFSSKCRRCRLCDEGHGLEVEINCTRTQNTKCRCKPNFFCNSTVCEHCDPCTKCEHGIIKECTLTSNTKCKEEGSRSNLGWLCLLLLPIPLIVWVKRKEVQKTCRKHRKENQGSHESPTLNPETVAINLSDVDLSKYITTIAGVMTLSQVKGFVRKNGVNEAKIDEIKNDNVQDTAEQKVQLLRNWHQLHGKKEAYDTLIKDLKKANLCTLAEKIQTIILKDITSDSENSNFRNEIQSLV
Kind of assay: flow cytometry, HEK293F cells expressing the receptor [Cont.].

A further assay deals with T15, CD120a.
T15 chain: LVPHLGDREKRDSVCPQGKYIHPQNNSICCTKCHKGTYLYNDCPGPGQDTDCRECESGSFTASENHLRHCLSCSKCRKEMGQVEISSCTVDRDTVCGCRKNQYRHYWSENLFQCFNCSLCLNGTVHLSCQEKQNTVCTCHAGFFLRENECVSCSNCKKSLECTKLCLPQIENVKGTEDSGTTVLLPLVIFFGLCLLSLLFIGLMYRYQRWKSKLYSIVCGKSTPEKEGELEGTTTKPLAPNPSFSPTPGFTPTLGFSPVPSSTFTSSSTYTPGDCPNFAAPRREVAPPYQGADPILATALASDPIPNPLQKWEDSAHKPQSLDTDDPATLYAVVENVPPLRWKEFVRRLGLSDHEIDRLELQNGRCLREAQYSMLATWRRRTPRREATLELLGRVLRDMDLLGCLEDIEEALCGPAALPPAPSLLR
Described as above.

The target of assay [9] is T16, full-length human CD137 on the cell surface (human, UniProt Q07011 18-255).
T16 construct: also called Human WT
Kind of assay: flow cytometry, PMA/ionomycin-activated human T cells, antibody 100 nM.

Sequence of Hu_GQ109AA (Q07011 18-255 G109A/Q110A): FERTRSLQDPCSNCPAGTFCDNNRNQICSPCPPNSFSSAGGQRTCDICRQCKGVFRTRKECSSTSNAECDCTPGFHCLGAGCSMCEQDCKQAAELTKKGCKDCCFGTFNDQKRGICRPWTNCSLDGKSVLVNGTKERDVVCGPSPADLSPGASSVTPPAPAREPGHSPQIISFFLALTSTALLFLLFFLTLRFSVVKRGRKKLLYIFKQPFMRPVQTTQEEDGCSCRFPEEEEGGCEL
Sequence of Hu_TN137AA (Q07011 18-255 T137A/N138A): as the sequence (Q07011 18-255 G109A/Q110A) above, with A92G, A93Q, T120A, N121A counted along it
Sequence of Hu_EL111AA (Q07011 18-255 E111A/L112A): as the sequence (Q07011 18-255 G109A/Q110A) above, with A92G, A93Q, E94A, L95A counted along it

B1: AG10131 (antibody, human IgG4 S228P, kappa)
heavy: EVQLVESGGGLVQPGGSLRLSCAASGFSLSTGGVGVGWIRQAPGKGLEWLALIDWADDKYYSPSLKSRLTISRDNSKNTLYLQLNSLRAEDTAVYYCARGGSDTVIGDWFAYWGQGTLVTVSSASTKGPSVFPLAPCSRSTSESTAALGCLVKDYFPEPVTVSWNSGALTSGVHTFPAVLQSSGLYSLSSVVTVPSSSLGTKTYTCNVDHKPSNTKVDKRV[human IgG4 Fc with S228P (EU numbers) skipped]
light: DIQLTQSPSSLSASVGDRVTITCRASQSIGSYLAWYQQKPGKAPKLLIYDASNLETGVPSRFSGSGSGTDFTLTISSLQPEDFATYYCQQGYYLWTFGQGTKVEIKRTVAAPSVFIFPPSDEQLKSGTASVVCLLNNFYPREAKVQWKVDNALQSGNSQESVTEQDSKDSTYSLSSTLTLSKADYEKHKVYACEVTHQGLSSPVTKSFNRGEC
notes: also called AG10131-IgG4
As for B1, the Kd is 3.7 nM in assay [1]; 0.2 nM in [2]; 0.3 nM in assay [3]; 23.9 nM in assay [4]; 3.7 nM in assay [5]; 12.5 nM in assay [6]. For the same molecule, in [7], the Kd was found to be 64.5 nM. In assay [1], this molecule displayed an off-rate (koff) of 0.0019 s⁻¹. The molecule also yielded an on-rate (kon) in [1] of 510000 M⁻¹ s⁻¹. The binding result in the assay with Hu_GQ109AA was “binds”; with Hu_EL111AA, “binds”; with Hu_TN137AA, “binds”; with CD95, “no binding (tested: 100 nM (text paragraph 226))”; in the assay with CD120a, “no binding (tested: 100 nM (text paragraph 226))”. The results for the “% in upper right quadrant” value with Hu_CRD4, with Hu_CRD1-CRD2 and with Hu_CRD2-CRD3 were 0.14%, 0.2% and 0.048%, respectively. In addition, the Mean came to 5210 with Hu_CRD4, 5740 in the assay with Hu_CRD1-CRD2 and 4020 with Hu_CRD2-CRD3. The “EC50 (read off the curve)” value in assay [8] was roughly 60 nM. For the same molecule, in assay [9], the “% of cells positive for antibody binding” value came out at 52.4%.
